Experimental data from the supplement of paper PMC12217912.
The other results are listed elsewhere or left out. The full chains were built here from the parent and the listed change. Inactive controls read about 0.05.

B1: TEV protease; numbered along this chain (parent)
chain: MGESLFKGPRDYNPISSSICHLTNESDGHTTSLYGIGFGPFIITNKHLFRRNNGTLVVQSLHGVFKVKDTTTLQQHLVDGRDMIIIRMPKDFPPFPQKLKFREPQREERICLVTTNFQTKSMSSMVSDTSCTFPSGDGIFWKHWIQTKDGQCGSPLVSTRDGFIVGIHSASNFTNTNNYFTSVPKNFMELLTNQEAQQWVSGWRLNADSVLWGGHKVFMVKPEEPFQPVKEATQL

Variants of: B1
Assay: raw area under fraction-flipped curve 0-4 h after induction (AUC4h, not background-subtracted), DNA-recorder readout of cleavage of the substrate (dimensionless); higher = more cleavage of the substrate by the protease variant
Conditions: temperature: 34 °C; time window: 0-4 h after rhamnose induction
Procedure: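 In vivo DNA recorder in E. coli TOP10(DE3) ΔrhaA at 34 °C. Each TEVp single-site mutant (parent TEVp 0) is paired with a single-site variant of the 7-mer TEVs (canonical ENLYFQ|S). The substrate sits between flexible linkers in a Bxb1-sfGFP-TEVs-SsrA fusion, so cleavage stabilises Bxb1 and speeds flipping of a recombination array, read by NGS. The value is the raw area under the fraction-flipped curve over 0-4 h after rhamnose induction (AUC4h), with ≥20 reads per time point. It is not background-subtracted; inactive controls average about 0.047.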
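Note: Bxb1 expression induced with 0.2% (w/v) L-rhamnose at OD600 near 0.5, cultures sampled hourly, flipped fraction per protease–substrate barcode pair counted by paired-end Illumina sequencing.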

Variant | area with substrate ENAYFQS | area with substrate ENCYFQS | area with substrate ENDYFQS | area with substrate ENEYFQS | area with substrate ENFYFQS | area with substrate ENGYFQS | area with substrate ENHYFQS | area with substrate ENIYFQS | area with substrate ENKYFQS | area with substrate ENMYFQS | area with substrate ENNYFQS | area with substrate ENPYFQS | area with substrate ENQYFQS | area with substrate ENRYFQS | area with substrate ENSYFQS | area with substrate ENTYFQS | area with substrate ENVYFQS | area with substrate ENWYFQS | area with substrate ENYYFQS
L48W | 0.0668 | 0.0555 | 0.0649 | 0.0635 | 0.0535 | 0.047 | 0.077 | 0.0781 | 0.067 | 0.0764 | 0.0665 | 0.0525 | 0.0601 | 0.0588 | 0.064 | 0.0596 | 0.0594 | 0.0596 | 0.0495
N52W | 0.0559 | 0.0615 | 0.0664 | 0.0605 | 0.0514 | 0.0803 | 0.0732 | 0.0688 | 0.065 | 0.07 | 0.0613 | 0.0598 | 0.0637 | 0.0679 | 0.0552 | 0.0581 | 0.0594 | 0.0523 | 0.042
G54I | 0.0511 | 0.0617 | 0.049 | 0.066 | 0.0479 |  |  | 0.0818 | 0.0515 | 0.0608 | 0.0601 |  | 0.0545 | 0.0611 | 0.0593 | 0.0718 | 0.0512 | 0.0397 | 0.0558
L56C | 0.0606 |  | 0.0685 |  | 0.0602 | 0.0684 | 0.0561 | 0.103 | 0.0536 |  | 0.0473 | 0.0596 | 0.0546 | 0.0475 | 0.067 | 0.0553 | 0.0613 | 0.0089 | 
L56I | 0.0521 | 0.0381 |  | 0.0403 |  | 0.0629 | 0.0731 |  |  | 0.0884 |  |  | 0.0604 | 0.0585 | 0.0571 |  | 0.101 | 0.0443 | 
L56M | 0.0529 | 0.0598 | 0.057 | 0.0742 | 0.0672 | 0.0762 | 0.0492 | 0.114 |  | 0.0747 | 0.0717 |  | 0.0586 |  |  | 0.0497 |  |  | 0.048
L56P | 0.0564 | 0.0493 | 0.0495 | 0.0468 |  | 0.0677 | 0.0503 | 0.056 | 0.0404 | 0.0344 | 0.0405 | 0.0339 | 0.0386 |  | 0.0453 | 0.0372 |  |  | 
L56Q | 0.0351 | 0.0498 | 0.0257 | 0.0495 |  | 0.0597 | 0.0472 |  |  |  | 0.0095 | 0.0453 | 0.0416 |  | 0.0274 | 0.0538 | 0.0379 |  | 0.0566
L56S | 0.0378 |  | 0.0444 | 0.0508 |  |  | 0.0538 | 0.053 | 0.0527 |  | 0.051 |  | 0.0554 | 0.0702 | 0.0453 | 0.0442 | 0.0634 |  | 0.0456
L56W | 0.0573 | 0.051 | 0.0613 | 0.0593 | 0.0626 | 0.052 | 0.0523 | 0.0559 | 0.0595 | 0.0574 | 0.0561 | 0.0542 | 0.062 | 0.0651 | 0.0432 | 0.0616 | 0.0605 |  | 0.0526
L56Y | 0.0586 | 0.0544 | 0.0439 | 0.0781 |  |  |  |  | 0.0574 |  |  |  | 0.038 |  | 0.0619 | 0.0665 | 0.0433 |  | 0.0446
L61G | 0.0632 | 0.0687 | 0.0722 | 0.0747 |  | 0.0617 | 0.0636 | 0.0845 | 0.0788 | 0.0743 | 0.0644 | 0.0802 | 0.0634 | 0.0583 | 0.059 | 0.0638 | 0.0817 |  | 
V64C | 0.0528 | 0.0689 | 0.064 | 0.0744 |  | 0.0604 | 0.0527 | 0.0859 | 0.0632 |  | 0.0656 |  | 0.0565 | 0.0192 | 0.0621 | 0.0659 |  |  | 
V64K | 0.062 | 0.0671 | 0.0562 | 0.0672 |  | 0.0521 | 0.0558 |  | 0.0638 | 0.103 | 0.0638 | 0.0663 | 0.0578 | 0.0664 | 0.0502 | 0.0609 | 0.0769 | 0.003 | 
V64P | 0.0622 | 0.0726 | 0.0653 | 0.0584 |  |  | 0.0618 | 0.0825 | 0.048 | 0.0776 | 0.0522 |  | 0.0599 | 0.0643 | 0.0733 | 0.0556 | 0.0653 | 0.0555 | 
V64T | 0.0334 | 0.0999 | 0.0245 | 0.0656 |  | 0.0706 |  | 0.111 | 0.038 |  | 0.0757 | 0.0524 | 0.0656 |  |  |  |  |  | 
V64W | 0.0365 | 0.0591 | 0.0784 | 0.0528 | 0.0589 |  | 0.0635 |  |  |  | 0.0307 |  | 0.0621 |  | 0.0684 | 0.104 |  |  | 
T72C | 0.0607 | 0.0699 |  | 0.0577 |  |  |  |  |  |  |  |  |  | 0.0596 | 0.0854 | 0.074 | 0.0816 |  | 0.0433
T72G | 0.0613 |  | 0.0633 | 0.0855 |  | 0.0779 | 0.0565 |  | 0.0568 |  | 0.0659 |  |  |  | 0.0684 | 0.0678 | 0.0549 |  | 
T72H | 0.0601 | 0.0739 | 0.0513 | 0.0598 | 0.0613 | 0.0371 | 0.0592 |  | 0.0596 | 0.0689 | 0.0619 | 0.0605 | 0.0544 |  | 0.0555 | 0.0621 | 0.0664 | 0.0466 | 0.0551
T72N | 0.0558 | 0.0691 | 0.0639 | 0.0642 | 0.0672 | 0.0653 |  | 0.117 |  | 0.0472 | 0.0695 | 0.098 | 0.0746 | 0.0597 | 0.0557 | 0.063 | 0.077 | 0.0781 | 0.0448
T72R | 0.0413 |  | 0.0576 | 0.0574 | 0.0585 | 0.0709 | 0.0626 |  | 0.0397 |  | 0.0513 | 0.0488 | 0.0686 |  | 0.0638 | 0.0666 | 0.0664 | 0.0479 | 0.063
T72S | 0.0473 |  | 0.0442 |  | 0.0397 |  |  |  |  |  | 0.0686 | 0.0457 | 0.0591 |  | 0.0646 |  |  | 0.0555 | 
T72V | 0.0543 | 0.0578 | 0.0665 | 0.0613 | 0.0656 |  |  |  |  |  | 0.0694 | 0.0534 | 0.0605 | 0.0491 | 0.0597 | 0.0489 |  | 0.0667 | 0.0876
Q75P | 0.0663 | 0.0673 | 0.0552 | 0.0578 | 0.0551 | 0.0755 | 0.0445 | 0.0635 | 0.0514 | 0.0502 | 0.0594 | 0.0682 | 0.0598 | 0.0586 | 0.0694 | 0.0575 | 0.0471 | 0.0715 | 
